The test system of this assay is L1210 leukemia ip in BDF1 mice, survival T/C. Description: NCI In Vivo Anticancer Drug Screen. Data for tumor model L1210 Leukemia (intraperitoneal) in B6D2F1 (BDF1) mice. To be noted: endpoint: mean survival time, higher = longer survival.

Results on 3 molecules are retold here after PubChem BioAssay AID248 (DTP/NCI, 2004).

Toxic doses and inconclusive results are not listed. For part of its entries the source gives two or more results. This list holds those alone. There may be further records. The values listed for one entry differ for a reason that is not stated; dose, time, organism, isomer or construct need not be as stated for each record.

Consider `O=C(CCBr)N1CCN(C(=O)CCBr)CC1`, for which the T/C (dose: 200.0 mg/kg/injection, schedule: Q01DX001 (ip), vehicle: saline) is given as 121 % of control, 122 % of control, 165 % of control.

With `COC12C(COC(N)=O)C3=C(C(=O)C(C)=C(N)C3=O)N1CC1C2N1C` (stereo not drawn), the T/C (dose: 32.5 mg/kg/injection, schedule: Q01DX001 (ip), vehicle: saline) is 122 % of control and 168 % of control.

On to `Cc1c2ccncc2cc2c3ccccc3n(CC3CO3)c12` (stereo not drawn), for which the T/C (dose: 300.0 mg/kg/injection, schedule: Q04DX003 (ip), vehicle: Klucel (hydroxypropylcellulose) (HPC)) was 112 % of control and 152 % of control.
